# Source: the supplement of paper PMC9446081
# In all, about 39,000 compounds went through this assay and about 220 (0.56%) showed activity. This is one part of the list.
# Tested on: Escherichia coli K-12 BW25113
# Experiment: relative growth (OD600 normalised to plate interquartile mean) (fraction); higher = less growth inhibition, active = 0.2 or less
# Conditions: 50 µM; LB; incubation time: overnight (16-24 h)
# 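Note: static incubation at 37 °C against the wild-type strain, values averaged over two biological replicates.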
row,SMILES,relative growth
1,C[C@H](CO)N1C[C@H](C)[C@H](CN(C)C(=O)Nc2ccc(C(F)(F)F)cc2)Oc2ccc(NC(=O)CCC(F)(F)F)cc2CC1=O,inactive: 0.998
2,CC(=O)N(C)C[C@@H]1Oc2ncc(C#C[C@H](C)O)cc2C(=O)N([C@H](C)CO)C[C@@H]1C,inactive: 1.02
3,CCn1cc(C(=O)N2CCN(C)CC2)c(=O)c2cc(S(=O)(=O)N(C)C)ccc21,inactive: 0.974
4,C[C@H]1CN([C@@H](C)CO)S(=O)(=O)c2ccc(C#Cc3ccccc3F)cc2O[C@H]1CN(C)C(=O)Cc1cccnc1,inactive: 0.991
5,CN1CCN(C(=O)C[C@H]2C[C@H]3c4cc(NS(=O)(=O)c5ccc(F)cc5)ccc4O[C@H]3[C@H](CO)O2)CC1,inactive: 0.972
6,C[C@@H]1CN([C@@H](C)CO)C(=O)c2cc(NC(=O)Nc3ccc(C(F)(F)F)cc3)ccc2O[C@@H](C)CCCCO[C@@H]1CN(C)S(=O)(=O)c1ccc(Cl)cc1,inactive: 1.02
7,C[C@@H]1CN([C@@H](C)CO)C(=O)c2cc(NC(=O)C3CCCCC3)ccc2O[C@@H](C)CCCCO[C@@H]1CN(C)C(=O)c1ccncc1,inactive: 1.01
8,Cc1cccc(Oc2ccc(NC(=O)C3CCC(C)CC3)cc2)c1 (configuration not stated),inactive: 0.992
9,O=c1[nH]c(=O)n([C@H]2C[C@H](O)[C@@H](CO)O2)cc1Br,inactive: 0.944
10,Cc1ccc(S(=O)(=O)Nc2ccc3c(c2)C(=O)N([C@H](C)CO)C[C@H](C)[C@H](CN(C)C(=O)c2ccccc2)OCCCC[C@H](C)O3)cc1,inactive: 1.01
11,COc1ccc2c3c(n(c2c1)C)[C@H](CO)N(C[C@]13CN(C1)C(=O)Nc1cccc(c1)F)C(=O)CN1CCOCC1,inactive: 1.01
12,CCOC(=O)CN(C#N)c1nc(C)cc(C)n1,inactive: 0.904
13,C[C@@H]1CN([C@@H](C)CO)C(=O)Cc2cc(NS(=O)(=O)c3ccccc3)ccc2O[C@@H]1CN(C)Cc1ccncc1,inactive: 1
14,CC(C)NC(=O)N[C@H]1C=C[C@H](CC(=O)NCCCN(C)C)O[C@@H]1CO,inactive: 1.03
15,C[C@@H]1CN([C@H](C)CO)C(=O)c2cc(NC(=O)Nc3ccccc3)ccc2O[C@@H](C)CCCCO[C@H]1CN(C)C(=O)Nc1ccc(C(F)(F)F)cc1,inactive: 1.02
16,COc1ccc(S(=O)(=O)Nc2ccc3c(c2)C(=O)N([C@@H](C)CO)C[C@H](C)[C@H](CN(C)C(=O)Nc2cccc4ccccc24)OCCCC[C@H](C)O3)cc1,inactive: 1.03
17,CNC(=O)C[C@H]1CC[C@@H]2[C@H](COC[C@H](O)CN2C(=O)c2ccc3c(c2)OCO3)O1,inactive: 0.99
18,Cc1noc(C)c1NC(=O)Nc1ccc2c(c1)C(=O)N([C@@H](C)CO)C[C@H](C)[C@@H](CN(C)C(=O)Nc1cccc3ccccc13)OCCCC[C@H](C)O2,inactive: 1.03
19,CC(=O)c1cc(Cl)c(C)cc1O,inactive: 0.981
20,COc1ccccc1CNC(=O)C[C@H]1C[C@@H]2c3cc(NC(=O)C4CCOCC4)ccc3O[C@@H]2[C@H](CO)O1,inactive: 1.01
21,[O-][NH2+]N1CCCCCCC1,inactive: 1.03

row,SMILES,relative growth
1,Cc1noc(C)c1NC(=O)N(C)C[C@H]1Oc2ccc(NS(=O)(=O)c3ccccc3)cc2C(=O)N([C@@H](C)CO)C[C@@H]1C,inactive: 1.01
2,O=C(CN1CCOCC1)NCC[C@@H]1CC[C@H](NC(=O)c2ccc3c(c2)OCO3)[C@H](CO)O1,inactive: 0.944
3,C[C@@H]1CCCCO[C@H](CN(C)S(=O)(=O)c2ccc(Cl)cc2)[C@@H](C)CN([C@H](C)CO)C(=O)c2cc(NC(=O)Nc3ccc(C(F)(F)F)cc3)ccc2O1,inactive: 1
4,COCC#Cc1cnc2c(c1)C(=O)N([C@@H](C)CO)C[C@@H](C)[C@@H](CN(C)C(=O)Nc1cc(F)ccc1F)O2,inactive: 1
5,C[C@@H]1CN([C@@H](C)CO)C(=O)c2cccc(NC(=O)c3cnccn3)c2O[C@@H]1CN(C)S(=O)(=O)c1ccccc1,inactive: 1
6,CCC(=O)N1C[C@]2(C1)CN([C@H](CO)c1[nH]c3cc(ccc3c12)OC)C(=O)CN1CCOCC1,inactive: 1
7,C[C@@H]1CN([C@H](C)CO)C(=O)c2cc(C#Cc3cccc(F)c3)cnc2O[C@H]1CN(C)C(=O)C1CCOCC1,inactive: 0.996
8,COc1ccc2c3c(n(c2c1)C)[C@H](CO)N(Cc1cc(cc(c1)OC)OC)C[C@]13CCN(CC1)C(=O)CN1CCOCC1,inactive: 0.999
9,Cc1ccccc1S(=O)(=O)N1C[C@H](O)COC[C@@H]2O[C@H](CC(=O)N3CCC(Cc4ccccc4)CC3)CC[C@H]21,inactive: 0.826
10,C[C@@H]1CN([C@@H](C)CO)C(=O)Cc2cc(NC(=O)c3ccncc3)ccc2O[C@@H]1CN(C)S(=O)(=O)c1cccs1,inactive: 1.02
11,COc1ccc(C#Cc2cnc3c(c2)C(=O)N([C@@H](C)CO)C[C@@H](C)[C@H](CN(C)C(=O)CC2CC2)O3)cc1,inactive: 1.02
12,CC1(Cn2ccnn2)C(C(=O)O)N2C(=O)CC2S1(=O)=O (configuration not stated),inactive: 0.985
13,COCC#Cc1ccc2c(c1)O[C@@H](CN(C)C(=O)Nc1ccc(OC)cc1)[C@H](C)CN([C@H](C)CO)S2(=O)=O,inactive: 1.01
14,COc1ccc(NC(=O)N(C)C[C@@H]2Oc3c(NS(C)(=O)=O)cccc3C(=O)N([C@H](C)CO)C[C@H]2C)cc1,inactive: 1.01
15,O=C(CN1CCOCC1)NCC[C@H]1CC[C@@H](NC(=O)Cc2ccccn2)[C@@H](CO)O1,inactive: 0.952
16,CC(=O)Nc1ncc([N+](=O)[O-])s1,inactive: 0.923
17,C[C@@H]1CCCCO[C@H](CN(C)Cc2ccc(Cl)c(Cl)c2)[C@H](C)CN([C@@H](C)CO)C(=O)c2cc(NC(=O)Nc3ccc(F)cc3)ccc2O1,inactive: 0.999
18,COc1ccc(S(=O)(=O)Nc2cccc3c2O[C@H](CN(C)Cc2ccc(Cl)c(Cl)c2)[C@H](C)CN([C@H](C)CO)C3=O)cc1,inactive: 1.03
19,C[C@H]1CN([C@@H](C)CO)C(=O)c2c(c3ccccc3n2C)-c2ccccc2CO[C@@H]1CN(C)Cc1cccc(C(F)(F)F)c1,inactive: 1.03
20,Cc1cccnc1[C@@H](NC(=O)C1CCN(CCOc2ccc(Cl)cc2Cl)CC1)c1ccc(Cl)cc1,inactive: 0.994
21,C[C@H](CO)N1C[C@H](C)[C@H](CN(C)C(=O)Nc2cccc3ccccc23)Oc2ccc(NC(=O)CCCCCC(=O)Nc3ccccc3N)cc2CC1=O,inactive: 1.04

row,SMILES,relative growth
1,Cc1noc(C)c1NC(=O)N(C)C[C@@H]1OCCCC[C@H](C)Oc2ccc(NC(=O)NC3CCCCC3)cc2C(=O)N([C@@H](C)CO)C[C@@H]1C,inactive: 0.842
2,C=CC(=O)NCCCCNC(=O)C=C,inactive: 0.999
3,C[C@@H]1CCCCO[C@H](CN(C)C(=O)C2CCCCC2)[C@H](C)CN([C@H](C)CO)C(=O)c2cc(NC(=O)CCC(F)(F)F)ccc2O1,inactive: 0.982
4,COc1ccc(C#Cc2ccc3c(c2)[C@]2(C(=O)N3)[C@H](C(=O)Nc3nc4ccccc4s3)[C@H]3C(=O)O[C@H](c4ccccc4)[C@H](c4ccccc4)N3[C@@H]2c2ccc(O)cc2)cc1,inactive: 0.997
5,O=C(C[C@@H]1C=C[C@H](NC(=O)CN2CCOCC2)[C@H](CO)O1)NCc1cccc(F)c1,inactive: 0.951
6,CC1(C)CCCC2(C)C1CCC1(C)OCCC12 (configuration not stated),inactive: 1.11
7,[N-]=[N+]=Nc1ccccc1[C@H]1OC(c2ccc(OCCCO)cc2)=N[C@@]1(CCS(=O)(=O)c1ccccc1)C(=O)N1CCCCC1,inactive: 1.04
8,COc1ccc(S(=O)(=O)N(C)C[C@H]2OCCCC[C@@H](C)Oc3ccc(NC(=O)NC4CCCCC4)cc3C(=O)N([C@H](C)CO)C[C@@H]2C)cc1,inactive: 1.01
9,O=C(NO)c1cccc(C(=O)N/N=C/[C@H](O)[C@H](O)[C@@H](O)[C@@H](O)CO)c1,inactive: 0.988
10,C[C@@H]1CN([C@@H](C)CO)C(=O)c2cccc(NC(=O)CCCCCC(=O)Nc3ccccc3N)c2O[C@@H]1CN(C)Cc1ccc(C(F)(F)F)cc1,inactive: 1.02
11,C[C@@H]1CCCCO[C@@H](CN(C)C(=O)c2ccccc2)[C@H](C)CN([C@@H](C)CO)C(=O)c2cc(NC(=O)c3ccccc3)ccc2O1,inactive: 1.01
12,C[C@H]1CCCCO[C@@H](CN(C)C(=O)C2CCCCC2)[C@@H](C)CN([C@@H](C)CO)C(=O)c2cc(NC(=O)C3CCCCC3)ccc2O1,inactive: 1.01
13,Cc1noc(C)c1S(=O)(=O)N(C)C[C@H]1Oc2ccc(NS(=O)(=O)c3cccs3)cc2C(=O)N([C@H](C)CO)C[C@H]1C,inactive: 1.04
14,COc1cccc(C#Cc2ccc([C@H]3[C@H](CO)N4C(=O)CN(S(=O)(=O)c5ccccc5C)C[C@@H]34)cc2)c1,inactive: 1.01
15,CCOC(=O)c1cccc(N)c1.CS(=O)(=O)O,inactive: 1.03
16,CNC[C@H]1OCCCC[C@@H](C)Oc2ccc(NC(=O)Nc3ccc(C(F)(F)F)cc3)cc2C(=O)N([C@@H](C)CO)C[C@H]1C,inactive: 0.967
17,COc1ccccc1CN(C)C[C@@H]1OCc2ccccc2-c2c(n(C)c3ccccc23)C(=O)N([C@@H](C)CO)C[C@@H]1C,inactive: 1
18,C[C@H](CO)N1C[C@H](C)[C@H](CN(C)Cc2cccc3c2OCCCO3)OCc2ccccc2-c2c(n(C)c3ccccc23)C1=O,inactive: 1.03
19,COc1cccc(NC(=O)N[C@@H]2C=C[C@@H](CC(=O)N3CCN(C)CC3)O[C@@H]2CO)c1,inactive: 1.01
20,Cc1ccc(S(=O)(=O)N(C)C[C@@H]2Oc3ccc(N(C)C)cc3CC(=O)N([C@H](C)CO)C[C@@H]2C)cc1,inactive: 0.992
